In all, about 46,000 compounds went through this assay and about 60 (0.1%) were called active. Not shown: some 3% with an inconclusive outcome. The call rests on the fitted dose curve; in most records, active means well fitted inhibition curve with a large enough effect; inconclusive means small, poorly fitted or top-dose-only effect; inactive means no such curve, though single readings can be large or run the other way. Some of the results follow.
experiment: Primary qHTS assay for Inhibitors of ovarian cancer metastasis using an organotypic tumor microenvironment (TME) model.; further: nearly all actives have a fitted effect of over 65% in size;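 on activity change, negative = inhibition: plate controls were DMSO wells for no effect and tomatine positive control wells for full effect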; details: SKOV3ip1-GFP adhesion/invasion on 3D omental model, fluorescence; series mostly up to 45.8 µM; activity change, negative = inhibition: at the top concentration
In short: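 Adhesion/invasion was scored as fixed GFP-labeled SKOV3ip1 cell counts (488/509 nm), normalized to DMSO and tomatine controls. Cancer cells in serum-free medium, with four compound doses (0.36-46 umol/L), sat 2 hr at RT then 16 hr at 37 C on a 48 hr fibroblast/mesothelial/ECM culture.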

Activity change, negative = inhibition, inactive:
Cc1ccc(C)c(NC(=O)c2cc(S(=O)(=O)N3CCCCCC3)ccc2F)c1 1.06%
O=C(Nc1cc(F)ccc1F)N1CCC(CN2CCCC2)CC1 25.3%
Cn1cc(S(=O)(=O)c2cccc(Cl)c2)c(=O)c2cc(F)c(N3CCN(c4ccccc4)CC3)cc21 -5.37%
Cc1ccc2c(=O)c(C(=O)c3cccc(Cl)c3)cn(CC(=O)Nc3ccc4c(c3)OCCO4)c2n1 3.5%
CCOc1ccc(NC(=O)CN2CCCN(Cc3cc(C)ccc3C)S2(=O)=O)cc1 -7.21%
CCOC(=O)c1ccccc1NC(=O)N1CCC(CN2CCCCC2)CC1 -2.94%
CCCC(=O)Nc1ccc(-c2nc3ncccc3o2)cc1C 11.7%
CCOC(=O)c1cccc(NC(=O)CCn2nc(C)c(S(=O)(=O)N3CCCCC3)c2C)c1 -0.939%
Cc1ccc(NC(=O)C(C)Sc2nc(=O)cc(N)n2-c2ccccc2)cc1 (stereo not drawn) -26.3%
CCc1ccccc1Nc1cc(C(=O)NC(C)c2ccccc2)c2ccccc2n1 (stereo not drawn) 16.5%
CCCc1nn2c(=O)cc(COC(=O)c3ccccc3NC(=O)c3ccc(Cl)cc3)nc2s1 -1.48%
COc1ccc2c(CNCCc3ccco3)c(C(=O)O)n(Cc3ccccc3)c2c1 1.84%
Cc1cc(S(=O)(=O)Nc2ccc(-c3ccc(N4CCCCCC4)nn3)cc2)c(C)cc1Cl -18.4%
CCOc1ccc(NC(=O)C2CCN(c3nnc(-n4c(C)ccc4C)s3)CC2)cc1 4.11%
Cc1ccc(NC(=O)c2cc(S(=O)(=O)N3CCc4ccccc43)ccc2F)cc1Cl -8.06%
COc1cc(OC)cc(-n2c(=O)c3sccc3n(Cc3c(C)cc(C)cc3C)c2=O)c1 1.36%
CCc1sc(Nc2cccc(C)c2C)nc1-c1cc2cccc(OC)c2oc1=O 1.27%
COc1ccc(-c2cc(C(F)(F)F)nc(SCC(=O)NCCc3ccccc3)n2)cc1OC -4.19%
O=C(NCc1nc2cccnc2n1Cc1ccc(F)cc1)c1ccccc1C(F)(F)F -0.84%
CCOc1ccc(NC(=O)Cn2nc(-c3ccncc3)ccc2=O)cc1 12.7%
CCCCNC(=O)c1c(C)oc2ncn(CC(C)C)c(=O)c12 0.842%
O=C(c1cccc(Cl)c1)N1CCN(CCc2ccccn2)CC1 -13.2%
COc1cccc(CNS(=O)(=O)c2cc3c(cc2C)n(C)c(=O)c(=O)n3C)c1 5.82%
Cc1noc(-c2ccc(NCc3ccccc3)c([N+](=O)[O-])c2)n1 6.56%
COc1ccc2nc(NC(=O)c3cc(=O)c4ccccc4o3)sc2c1 4.89%
Cc1ccccc1CN1C(=O)c2ccccc2Sc2ccc(C(=O)NCc3cccs3)cc21 11.4%
CCC(=O)N1CCc2cc(Br)cc(S(=O)(=O)N3CCCC(C(=O)NCc4ccccc4)C3)c21 (stereo not drawn) -9.54%
COc1ccc(C(=O)N(Cc2ccco2)Cc2ccco2)cc1 -0.57%
COc1ccccc1CNCCSc1nnnn1C -1.41%
O=C(Cn1c(=O)nc(-c2ccccc2)c2cc(Cl)ccc21)NCCc1ccc(Cl)cc1 -1.41%
CCOc1ccc(/C=C/c2nc3ccccc3n2S(=O)(=O)c2ccc(Br)cc2)cc1 -5.65%
COc1ccccc1N1CCN(S(=O)(=O)c2c(C)sc3ncn(CC(=O)Nc4ccccc4F)c(=O)c23)CC1 7.08%
CCOc1ccc(NC(=O)CSc2nnc(CNC(=O)c3c(F)cccc3Cl)o2)cc1 0.126%
CCc1ccc(NCc2cccn2-c2nnc(N3CCCCCC3)s2)cc1 7.78%
COc1ccc(C)cc1NS(=O)(=O)c1ccc2c(c1)n(C)c(=O)n2C 5.33%
COC(=O)c1ccc(Cl)cc1NC(=O)N(Cc1ccc(C)o1)C1CCN(C(C)=O)CC1 1.77%
Cc1ccc(NC(=O)Cn2nnc3sc(-c4ccccc4)cc3c2=O)cc1Cl 1.08%
CCC(C)NC(=O)c1ccc2c(=O)n3c(nc2c1)CCCCC3 (stereo not drawn) 1.19%
Cc1ccc2c(c1)N(C(=O)NCc1ccccc1)CCO2 5.41%
Cc1nnc2c(Nc3cccc(O)c3)nc3ccccc3n12 -19.1%
CCn1c(=O)c(=O)n(CC)c2cc(N3CCCCC3)c(NC(=O)c3cccc(F)c3)cc21 10.8%
CC(=O)Nc1ccc(C)cc1-c1nc2ccccc2n(CC(=O)Nc2cc(Cl)ccc2C)c1=O -7.42%
CCCN1Cc2cccc(C(=O)Nc3cc(C)cc(C)c3)c2C1=O -12%
COc1ccc(NC(=O)CSc2nc(-c3ccco3)cc(C(F)(F)F)n2)cc1 -3.22%
COc1ccc(Cl)cc1NC(=O)CCC(=O)N1CCOc2ccccc21 -8.88%
CCCNC(=O)N1[C@H](c2ccc(C)s2)[C@@H](C)C(=O)[C@@H](C)[C@@H]1c1ccc(C)s1 7.99%
COc1ccc(N2C(=O)C(CC(=O)Nc3ccc(F)cc3)N(Cc3ccc4c(c3)OCO4)C2=O)cc1 (stereo not drawn) -1.25%
Cc1cc(F)ccc1S(=O)(=O)Nc1ccc2c(c1)CCCN2C(=O)c1cccs1 -24.1%

outcome, inactive:
CC1=C(C(=O)Nc2ccccc2)C(c2cccs2)n2nc(SCc3ccccc3F)nc2N1 (stereo not drawn)
CN1C(=O)Cc2cc(S(=O)(=O)CCC(=O)Nc3ccc(F)c(Cl)c3)ccc21
O=C(CSc1nnc(NC(=O)Nc2ccccc2)s1)Nc1cccc(F)c1
Cc1nc(-c2cccnc2)sc1CCNS(=O)(=O)c1ccc(F)cc1
COCCNC(=O)c1cccc(-n2c(C)nc3cccnc32)c1
COc1ccc(NC(=O)CSc2nc3ccccc3n2Cc2cccc(OC)c2)cc1
Cc1ccccc1OCC(=O)Nc1cc(-c2cccc(Br)c2)nn1-c1ccccc1
COc1ccc(NC(=O)Cn2c(=O)n(CCc3ccccc3)c(=O)c3ccccc32)cc1
Cc1noc(/C=C/c2ccccc2F)c1S(=O)(=O)N1CCC(C(=O)N(C)Cc2ccco2)CC1
COC(=O)c1c(N)n(-c2cc(Cl)cc(Cl)c2)c2nc3ccccc3nc12
Nc1c(-c2nc(-c3ccncc3)no2)nnn1CC(=O)Nc1ccccc1
COc1cccc(NC(=O)Cn2c(=O)n(-c3ccc(Cl)cc3)c(=O)c3sc4ccccc4c32)c1
COc1ccc(S(=O)(=O)NCC(c2ccco2)N2CCOCC2)cc1C (stereo not drawn)
COc1ccc(C(=O)NCC2(N3CCN(C)CC3)CCCCC2)cc1
COc1ccc(NC(=O)Cn2c(=O)n(Cc3ccc(C(=O)NCc4ccccc4Cl)cc3)c(=O)c3ccccc32)cc1OC

From PubChem BioAssay AID1963576 (National Center for Advancing Translational Sciences (NCATS), 2024)
